Experimental data reported in the supplement of paper PMC8728848.
This is one part of the list.

Columns and labels:
Test in all cases: glycan array binding signal (z-score within array); higher = stronger binding
Conditions in all cases: glycan notation: IUPAC condensed, linker removed
[1] = target: Gal(b1-4)GlcNAc(b1-6)Gal(b1-4)GlcNAc
In short: (§1)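 Glycan array data were curated from 3228 arrays in the Consortium for Functional Glycomics database and kept only where the protein sequence was available. Glycan names were converted to IUPAC-condensed notation, and columns mapping to the same glycan were averaged. The binding signal is a within-array Z-score, averaged across arrays of the same protein sequence at different concentrations or buffers and across linkers. Negative Z-scores can be read as non-binding.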

[2] = target: Gal(b1-4)GlcNAc(b1-6)GalNAc
In short: as §1

[3] = target: Gal(b1-4)GlcNAc(b1-6)[Gal(b1-3)]GalNAc
In short: as §1

[4] = target: Gal(b1-4)GlcNAc(b1-6)[Gal(b1-4)GlcNAc(b1-3)]GalNAc
In short: as §1

Gal(b1-4)GlcNAc6P = target: Gal(b1-4)GlcNAc6P
In short: as §1

Gal(b1-6)Gal = target: Gal(b1-6)Gal
In short: as §1

Gal3S(b1-3)GalNAc = target: Gal3S(b1-3)GalNAc
In short: as §1

Gal3S(b1-3)GlcNAc = target: Gal3S(b1-3)GlcNAc
In short: as §1

[5] = target: Gal3S(b1-3)[Fuc(a1-4)]GlcNAc
In short: as §1

Gal3S(b1-4)Glc = target: Gal3S(b1-4)Glc
In short: as §1

Gal3S(b1-4)Glc6S = target: Gal3S(b1-4)Glc6S
In short: as §1

Gal3S(b1-4)GlcNAc = target: Gal3S(b1-4)GlcNAc
In short: as §1

[6] = target: Gal3S(b1-4)[Fuc(a1-3)]Glc6S
In short: as §1

[7] = target: Gal3S(b1-4)[Fuc(a1-3)]GlcNAc
In short: as §1

[8] = target: Gal3S(b1-4)[Fuc(a1-3)]GlcNAc6S
In short: as §1

Gal3S4S(b1-4)GlcNAc = target: Gal3S4S(b1-4)GlcNAc
In short: as §1

Gal3S6S(b1-4)GlcNAc = target: Gal3S6S(b1-4)GlcNAc
In short: as §1

Gal3S6S(b1-4)GlcNAc6S = target: Gal3S6S(b1-4)GlcNAc6S
In short: as §1

Gal4S(b1-4)GlcNAc = target: Gal4S(b1-4)GlcNAc
In short: as §1

Gal4S6S(b1-4)GlcNAc = target: Gal4S6S(b1-4)GlcNAc
In short: as §1

Gal6P(b1-4)GlcNAc = target: Gal6P(b1-4)GlcNAc
In short: as §1

Gal6S(b1-3)GlcNAc = target: Gal6S(b1-3)GlcNAc
In short: as §1

Gal6S(b1-3)GlcNAc6S = target: Gal6S(b1-3)GlcNAc6S
In short: as §1

B1: CrataBL (Crataeva tapia), C0HJA4 (protein)
chain: AILTGVPYYILPSTSRAGFSPDNLRKNTSQLSCPLDLITQLRFPRRIGVPVIFTPQNSSLKVVPLSHNLNIHTCSDLWFCPESKIWTVKSSLTHGGSVVTTGGTFRSLGSWFRIERHGDSYKLVHCPRGSTPCRDVGIETVGGGGRRYLAPRDRPLAVRFTRASG
glycan array binding signal (z-score) [1]: -0.426 | glycan array binding signal (z-score) [2]: 0.211 | glycan array binding signal (z-score) [3]: 0.018 | glycan array binding signal (z-score) [4]: -0.237 | glycan array binding signal (z-score) (Gal(b1-4)GlcNAc6P): 0.876 | glycan array binding signal (z-score) (Gal(b1-6)Gal): -0.084 | glycan array binding signal (z-score) (Gal3S(b1-3)GalNAc): -0.068 | glycan array binding signal (z-score) (Gal3S(b1-3)GlcNAc): -0.002 | glycan array binding signal (z-score) [5]: -0.072 | glycan array binding signal (z-score) (Gal3S(b1-4)Glc): -0.401 | glycan array binding signal (z-score) (Gal3S(b1-4)Glc6S): 2.03 | glycan array binding signal (z-score) (Gal3S(b1-4)GlcNAc): -0.021 | glycan array binding signal (z-score) [6]: 0.98 | glycan array binding signal (z-score) [7]: 0.244 | glycan array binding signal (z-score) [8]: 5.22 | glycan array binding signal (z-score) (Gal3S4S(b1-4)GlcNAc): 2.38 | glycan array binding signal (z-score) (Gal3S6S(b1-4)GlcNAc): 3.14 | glycan array binding signal (z-score) (Gal3S6S(b1-4)GlcNAc6S): 11.7 | glycan array binding signal (z-score) (Gal4S(b1-4)GlcNAc): -0.147 | glycan array binding signal (z-score) (Gal4S6S(b1-4)GlcNAc): 1.86 | glycan array binding signal (z-score) (Gal6P(b1-4)GlcNAc): -0.477 | glycan array binding signal (z-score) (Gal6S(b1-3)GlcNAc): 1.17 | glycan array binding signal (z-score) (Gal6S(b1-3)GlcNAc6S): 6.61
